Values marked as one replicate rest on one cluster of the flow cell; about a third of the high ones do not repeat.
These sequences were tested on ATP (assay: switch fluorescence ratio, 500 uM ATP over buffer (Cy3 cluster intensity, sum of 5 cycles each) (fold (ratio)); higher = stronger signal-on switching upon ATP binding; sequences stand for … in TCGTCGGCAGCGTCAGATGTGTATAAGAGACAGTTTTTTTTTTTTTTTTTTTTTTTTT…TC). Conditions: aptamer strand: ATP DNA aptamer (quencher-CACCTGGGGGAGTATTGCGGAGGAAGG + anchor), 100 nM annealed; ATP concentration: 500 uM; one replicate.
Outline: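 Switching-strand clusters labelled with Cy3 on a modified Illumina MiSeq flow-cell were annealed to 100 nM quencher-labelled ATP aptamer, imaged in selection buffer, and re-imaged after 15 min with 500 uM ATP at 22 °C. This was done over five cycles with NaOH stripping and re-annealing in between. The fluorescence ratio is summed target-cycle over summed buffer-cycle Cy3 intensity per cluster, averaged per switch-domain sequence, excluding clusters outside 100-1000 RFU.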
CCCTTATTAG gave a switch fluorescence ratio of 1.02.
Sequence CCCTTCGCGG has a switch fluorescence ratio of 5.05.
CCCTTGAAGC gave a switch fluorescence ratio of 1.04.
Sequence CCCTTGGGGC has a switch fluorescence ratio of 1.13.
CCCTTTGGTG showed a switch fluorescence ratio of 2.11.
Work on CCGAAACATG yielded a switch fluorescence ratio of 1.33.
CCGAACAGGG gave a switch fluorescence ratio of 1.05.
CCGAACGAGG gave a switch fluorescence ratio of 1.49.
For CCGAAGTTTA, the switch fluorescence ratio was 1.93.
Sequence CCGAATACAT has a switch fluorescence ratio of 1.24.
CCGACGATGT was tested, and the switch fluorescence ratio was 5.24.
CCGAGAATAG showed a switch fluorescence ratio of 5.26.
With CCGAGACGGG the switch fluorescence ratio was 1.09.
CCGAGAGAAG gave a switch fluorescence ratio of 1.21.
CCGAGATCGG was tested, and the switch fluorescence ratio was 0.995.
Work on CCGAGCCCAA yielded a switch fluorescence ratio of 2.5.
Sequence CCGAGCCCTA has a switch fluorescence ratio of 1.61.
For CCGAGTAGTG, the switch fluorescence ratio was 1.2.
Work on CCGAGTCCGT yielded a switch fluorescence ratio of 2.22.
CCGATAAAAC gave a switch fluorescence ratio of 2.31.
Sequence CCGATAATCC has a switch fluorescence ratio of 1.77.
For CCGATCTGGG, the switch fluorescence ratio was 1.03.
CCGATGCCTT was tested, and the switch fluorescence ratio was 2.08.
In the case of CCGATGCGTG, the switch fluorescence ratio is reported as 2.58.
CCGATGTGCC showed a switch fluorescence ratio of 1.33.
Work on CCGCAGATTT yielded a switch fluorescence ratio of 2.83.
Sequence CCGCAGTGGG has a switch fluorescence ratio of 3.
In the case of CCGCATGTCA, the switch fluorescence ratio is reported as 3.83.
With CCGCCTGCAC the switch fluorescence ratio was 4.55.
Work on CCGCGAGTGT yielded a switch fluorescence ratio of 1.54.
CCGCGGAAGG was tested, and the switch fluorescence ratio was 1.01.
With CCGCGGGGCA the switch fluorescence ratio was 1.38.
CCGCGTATAA was tested, and the switch fluorescence ratio was 2.7.
With CCGCGTCGCG the switch fluorescence ratio was 1.01.
CCGCTTAAA gave a switch fluorescence ratio of 2.02.
CCGGAAGTGG was tested, and the switch fluorescence ratio was 1.14.
In the case of CCGGACGCTG, the switch fluorescence ratio is reported as 1.31.
For CCGGACGGGA, the switch fluorescence ratio was 1.03.
In the case of CCGGACGTTG, the switch fluorescence ratio is reported as 1.03.
CCGGAGGTGA gave a switch fluorescence ratio of 1.4.
CCGGAGGTTG gave a switch fluorescence ratio of 1.01.
For CCGGCATAGG, the switch fluorescence ratio was 1.2.
Work on CCGGCATTGT yielded a switch fluorescence ratio of 1.21.
Sequence CCGGCCTATA has a switch fluorescence ratio of 1.53.
In the case of CCGGCGCCTA, the switch fluorescence ratio is reported as 1.26.
In the case of CCGGCGGATG, the switch fluorescence ratio is reported as 0.996.
Sequence CCGGCGGGCC has a switch fluorescence ratio of 1.02.
In the case of CCGGCGTCCG, the switch fluorescence ratio is reported as 1.09.
Sequence CCGGGAAGAG has a switch fluorescence ratio of 1.07.
CCGGGATCCG gave a switch fluorescence ratio of 1.06.
In the case of CCGGGATCTA, the switch fluorescence ratio is reported as 1.04.
In the case of CCGGGCGGGT, the switch fluorescence ratio is reported as 1.08.
CCGGGCTTTT was tested, and the switch fluorescence ratio was 1.03.
With CCGGGGAGCC the switch fluorescence ratio was 1.05.
Work on CCGGGGCAGT yielded a switch fluorescence ratio of 4.37.
CCGGGGGTGG gave a switch fluorescence ratio of 1.04.
CCGGGGTTCG was tested, and the switch fluorescence ratio was 0.938.
CCGGGTATTC gave a switch fluorescence ratio of 1.34.
CCGGGTTGTG gave a switch fluorescence ratio of 0.99.
Work on CCGGTCTTCT yielded a switch fluorescence ratio of 1.06.
For CCGGTTTGAT, the switch fluorescence ratio was 1.04.
In the case of CCGGTTTGCC, the switch fluorescence ratio is reported as 1.01.
With CCGGTTTGTA the switch fluorescence ratio was 0.992.
In the case of CCGTAACGAT, the switch fluorescence ratio is reported as 2.69.
Work on CCGTAATGAT yielded a switch fluorescence ratio of 2.66.
Work on CCGTACGGCG yielded a switch fluorescence ratio of 1.01.
CCGTATGTGG gave a switch fluorescence ratio of 0.967.
CCGTCGATGC gave a switch fluorescence ratio of 1.13.
With CCGTCTTAAT the switch fluorescence ratio was 1.01.
Sequence CCGTCTTGGA has a switch fluorescence ratio of 0.958.
In the case of CCGTGAATTG, the switch fluorescence ratio is reported as 1.16.
With CCGTGACGTC the switch fluorescence ratio was 0.987.
CCGTGACTAT was tested, and the switch fluorescence ratio was 1.12.
CCGTGATCGC showed a switch fluorescence ratio of 2.48.
In the case of CCGTGTGGTG, the switch fluorescence ratio is reported as 1.1.
CCGTTACAGC showed a switch fluorescence ratio of 1.34.
In the case of CCGTTAGCGC, the switch fluorescence ratio is reported as 3.39.
CCGTTCTGT was tested, and the switch fluorescence ratio was 1.02.
CCGTTCTGTC was tested, and the switch fluorescence ratio was 1.3.
For CCGTTGACGT, the switch fluorescence ratio was 1.08.
Sequence CCGTTGGAAT has a switch fluorescence ratio of 1.2.
CCTAAAAAC gave a switch fluorescence ratio of 1.02.
Work on CCTAAACGGA yielded a switch fluorescence ratio of 1.01.
With CCTAAACTAC the switch fluorescence ratio was 1.7.
In the case of CCTAAATATC, the switch fluorescence ratio is reported as 1.46.
CCTAAATTAG was tested, and the switch fluorescence ratio was 1.01.
Work on CCTAAGAGTC yielded a switch fluorescence ratio of 1.02.
CCTAAGCTCG gave a switch fluorescence ratio of 1.01.
CCTACCAGCG gave a switch fluorescence ratio of 1.54.
For CCTACCATCG, the switch fluorescence ratio was 1.12.
CCTACCTGCT showed a switch fluorescence ratio of 1.23.
In the case of CCTACGTGTG, the switch fluorescence ratio is reported as 1.13.
CCTAGCCATT was tested, and the switch fluorescence ratio was 1.18.
With CCTAGTGACA the switch fluorescence ratio was 1.06.
CCTATAATA was tested, and the switch fluorescence ratio was 0.997.
For CCTATGGCTG, the switch fluorescence ratio was 1.05.
Work on CCTATGTTAT yielded a switch fluorescence ratio of 1.09.
CCTATTCGTA gave a switch fluorescence ratio of 0.986.
With CCTCATGGTC the switch fluorescence ratio was 1.17.
In the case of CCTCATTCAG, the switch fluorescence ratio is reported as 1.13.
CCTCCTTGA showed a switch fluorescence ratio of 1.12.
Sequence CCTCGACAGG has a switch fluorescence ratio of 2.
With CCTCGGAGCA the switch fluorescence ratio was 3.59.
For CCTCGGGATA, the switch fluorescence ratio was 2.22.
Sequence CCTCTCCGCT has a switch fluorescence ratio of 3.57.
CCTCTGAGGA gave a switch fluorescence ratio of 1.08.
Work on CCTCTTGATT yielded a switch fluorescence ratio of 1.07.
For CCTGACTCAC, the switch fluorescence ratio was 2.5.
Sequence CCTGAGCACC has a switch fluorescence ratio of 1.69.
In the case of CCTGAGCTCG, the switch fluorescence ratio is reported as 1.01.
Sequence CCTGAGGGAG has a switch fluorescence ratio of 1.19.
CCTGAGTAA was tested, and the switch fluorescence ratio was 1.7.
CCTGATCCTC was tested, and the switch fluorescence ratio was 1.04.
Sequence CCTGATGGTG has a switch fluorescence ratio of 1.25.
With CCTGATTAGC the switch fluorescence ratio was 1.01.
CCTGCATGTA gave a switch fluorescence ratio of 1.41.
Sequence CCTGCCAAGG has a switch fluorescence ratio of 1.02.
Work on CCTGCGCGTA yielded a switch fluorescence ratio of 5.76.
Sequence CCTGCTGCTA has a switch fluorescence ratio of 3.14.
CCTGGATCTT was tested, and the switch fluorescence ratio was 1.01.
CCTGGCTAAA showed a switch fluorescence ratio of 1.14.
CCTGGCTTGG showed a switch fluorescence ratio of 0.998.
In the case of CCTGGGAAAG, the switch fluorescence ratio is reported as 0.997.
Sequence CCTGGGAAGC has a switch fluorescence ratio of 1.1.
CCTGGTAAAA was tested, and the switch fluorescence ratio was 0.992.
Sequence CCTGGTCTAC has a switch fluorescence ratio of 1.59.
Work on CCTGTCAGGT yielded a switch fluorescence ratio of 0.996.
Work on CCTGTCGCGT yielded a switch fluorescence ratio of 1.38.
For CCTGTGTAG, the switch fluorescence ratio was 1.06.
With CCTTAAGTAT the switch fluorescence ratio was 1.05.
In the case of CCTTAATCGA, the switch fluorescence ratio is reported as 1.01.
In the case of CCTTAATCGG, the switch fluorescence ratio is reported as 1.02.
Work on CCTTACTCTA yielded a switch fluorescence ratio of 1.69.
For CCTTAGAATT, the switch fluorescence ratio was 1.05.
With CCTTAGTTCC the switch fluorescence ratio was 1.03.
Sequence CCTTATGATG has a switch fluorescence ratio of 0.979.
Sequence CCTTATTCGA has a switch fluorescence ratio of 1.01.
Work on CCTTCAAAAT yielded a switch fluorescence ratio of 1.07.
With CCTTCAGAGT the switch fluorescence ratio was 1.08.
CCTTCAGGCT gave a switch fluorescence ratio of 1.06.
CCTTCGCGGG was tested, and the switch fluorescence ratio was 4.8.
Sequence CCTTCTGGGC has a switch fluorescence ratio of 1.3.
For CCTTGAACGA, the switch fluorescence ratio was 1.03.
Sequence CCTTGGAGGG has a switch fluorescence ratio of 0.975.
Sequence CCTTGGATC has a switch fluorescence ratio of 0.994.
For CCTTGGGCTG, the switch fluorescence ratio was 1.02.
CCTTGGTATG showed a switch fluorescence ratio of 1.01.
For CCTTGTACGA, the switch fluorescence ratio was 1.09.
For CCTTGTCATC, the switch fluorescence ratio was 1.16.
Work on CCTTGTCTAC yielded a switch fluorescence ratio of 2.17.
For CCTTGTGGGT, the switch fluorescence ratio was 1.24.
CCTTTAGTGG showed a switch fluorescence ratio of 0.97.
CCTTTCAATA was tested, and the switch fluorescence ratio was 2.86.
With CCTTTCTTGC the switch fluorescence ratio was 1.36.
For CCTTTGGATC, the switch fluorescence ratio was 1.05.
For CCTTTTTGGC, the switch fluorescence ratio was 1.03.
CGAAAAAAAC showed a switch fluorescence ratio of 1.01.
Work on CGAAAACGCG yielded a switch fluorescence ratio of 1.03.
With CGAAACATAT the switch fluorescence ratio was 1.07.
For CGAAACCGCT, the switch fluorescence ratio was 1.37.
CGAAAGCGCA was tested, and the switch fluorescence ratio was 1.02.
With CGAAAGTGTA the switch fluorescence ratio was 1.
With CGAAAGTGTT the switch fluorescence ratio was 1.13.
In the case of CGAAATACCT, the switch fluorescence ratio is reported as 1.46.
CGAAATATAG gave a switch fluorescence ratio of 0.994.
With CGAAATTGAA the switch fluorescence ratio was 0.941.
Sequence CGAACCGGAA has a switch fluorescence ratio of 1.21.
CGAACTCTAA gave a switch fluorescence ratio of 1.
For CGAAGCAGAG, the switch fluorescence ratio was 2.12.
CGAAGCATAA gave a switch fluorescence ratio of 2.89.
For CGAAGCTGTC, the switch fluorescence ratio was 1.26.
In the case of CGAAGGAAAG, the switch fluorescence ratio is reported as 0.974.
In the case of CGAAGGGCCC, the switch fluorescence ratio is reported as 0.998.
In the case of CGAAGGGGGC, the switch fluorescence ratio is reported as 0.942.
With CGAAGGTGAC the switch fluorescence ratio was 1.19.
CGAAGTATTA showed a switch fluorescence ratio of 1.04.
CGAATCAGTG showed a switch fluorescence ratio of 0.973.
CGAATGCTGT was tested, and the switch fluorescence ratio was 0.93.
Work on CGAATTAGCG yielded a switch fluorescence ratio of 1.
Work on CGAATTCAAG yielded a switch fluorescence ratio of 0.962.
With CGAATTCCGT the switch fluorescence ratio was 0.998.
CGAATTGGCG was tested, and the switch fluorescence ratio was 1.06.
For CGAATTTGTT, the switch fluorescence ratio was 0.978.
Sequence CGACAAACAG has a switch fluorescence ratio of 1.02.
With CGACAATCGT the switch fluorescence ratio was 1.01.
CGACAATTAT was tested, and the switch fluorescence ratio was 1.18.
CGACAGACTA showed a switch fluorescence ratio of 1.03.
With CGACAGAGAC the switch fluorescence ratio was 1.59.
Work on CGACCGGGTC yielded a switch fluorescence ratio of 0.989.
Sequence CGACCTACAC has a switch fluorescence ratio of 1.74.
CGACCTTAAG showed a switch fluorescence ratio of 0.97.
CGACCTTCCC gave a switch fluorescence ratio of 2.92.
CGACGATGTA gave a switch fluorescence ratio of 1.13.
Work on CGACGGGATA yielded a switch fluorescence ratio of 5.57.
With CGACGGGTGC the switch fluorescence ratio was 2.93.
In the case of CGACGGTCTG, the switch fluorescence ratio is reported as 1.01.
For CGACTCAGG, the switch fluorescence ratio was 1.11.
For CGACTCCGTT, the switch fluorescence ratio was 1.71.
CGACTGAGTG was tested, and the switch fluorescence ratio was 1.02.
CGACTGCCCC was tested, and the switch fluorescence ratio was 1.21.
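Further: ATP exposure 15 min at 22 °C before imaging.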
